The other results are listed elsewhere or left out. At the low end of the ranking the order means little. The protein was read in a cell extract, so binding may be indirect.

This assay deals with T1, HNF4alpha2 (COS-7 nuclear extract) (UniProt P41235).
T1 sequence: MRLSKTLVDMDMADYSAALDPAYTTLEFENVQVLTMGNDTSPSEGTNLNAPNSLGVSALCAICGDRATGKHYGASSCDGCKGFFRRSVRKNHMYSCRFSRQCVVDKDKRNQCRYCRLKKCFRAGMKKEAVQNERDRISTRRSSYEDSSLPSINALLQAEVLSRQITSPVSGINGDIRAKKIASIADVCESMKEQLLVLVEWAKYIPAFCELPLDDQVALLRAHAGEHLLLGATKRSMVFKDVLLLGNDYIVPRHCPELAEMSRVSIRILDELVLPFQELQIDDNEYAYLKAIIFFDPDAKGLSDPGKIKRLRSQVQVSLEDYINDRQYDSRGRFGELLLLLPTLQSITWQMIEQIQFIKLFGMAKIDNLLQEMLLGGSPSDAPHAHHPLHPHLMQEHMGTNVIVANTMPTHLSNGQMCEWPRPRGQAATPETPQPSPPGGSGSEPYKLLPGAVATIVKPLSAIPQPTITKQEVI
Put plainly: protein-binding microarray. The following applies: COS-7 nuclear extract on double-stranded Agilent 4x180k PBM; binding buffer, salt, pH and temperature not given; high values mean tight binding; double strand, one strand shown; sequences stand for … in …GCCTAGGGAGATTAGAGTATCGGTCGA
With AGGAGGGGACTTCAAAGGCTCCCCTAATCC, the binding signal (log2 normalized intensity) is -1.08.
Next, AAGGCAGGCAGCATGGAATGACTTTGGGGA: -1.16; GAAGGGAAGCTCTGGGAGTGCCCTTGCCGA: -0.979.
Take TTTGGGAACCGTTAGCAACCGGAAGTGGCT: the binding signal (log2 normalized intensity) is -1.01.
The value for AGCGAGTAAGGCCCGTGAGATTGAAAGCTA was -1.15.
The value for TAACTCCCCCTTCATCTGGGACGTGGCTCA was 1.38.
Next, TATCAGTATCAATGAGATCTCCCCACATTC: 1.39.
As for GAGGAATTTGGACTTTTACTCTTAGAGATA, the binding signal (log2 normalized intensity) was found to be 2.95.
Next, CCCCCTGTGATTACTTCCACTCTTGCAGAT: -0.136.
As for TATCTTCTGCTTTCAAAGCTCCAGTTCCAG, the binding signal (log2 normalized intensity) was -1.14.
The value for AAAGATGTTTAAATAGTGATAATGGATGGC was 1.11.
Regarding TGAGATACCACGTATCTTTCAGATCCCTTG, the binding signal (log2 normalized intensity) was -0.867.
Next, GCTATGATTGCGCCACTGCATTCCAGCCTG: -1.07.
Regarding TGGATTCGCCCAGCATAGCACACCAGCTCT, the binding signal (log2 normalized intensity) is -1.2.
As to CCAGTTATTCATGTCCCTACCACATACAGA, the binding signal (log2 normalized intensity) is 1.09.
With CCTGTCACCTCCCTCAGAGCTCAGATGAAC, the binding signal (log2 normalized intensity) came out at 0.177.
As to CAATCCCCCATCTATTTACAAAAGACCAGA, the binding signal (log2 normalized intensity) was determined as 2.42.
Next, CCCTTCTGTCAAGTCCAAAGTTCTTGGCCA: 3.18; CTTTAAGTAGGCACTATTATCCCCCTATCC: 3.5; GGATTAAAGAATTCGTCCAGGGCCGCCCAA: -1.08.
Next, GCTCTGCTACTGACCAGATGTTATTACTTA: 0.359.
In the case of CCACCTGCCCCAGGAATGCCTTTTCTTTCA, the binding signal (log2 normalized intensity) was determined as 1.43.
Next, ATTACTGAAGTTCCAGAGCCTTCAAAGGAA: -0.96.
Consider TGATCTGGTTTTTGTTGTTGAGCAAATCAT, for which the binding signal (log2 normalized intensity) is 1.75.
With CAGTCACTCATGAGCCATCCTGAACAAATG, the binding signal (log2 normalized intensity) is -1.12.
The value for AAGCCACAGAGATCAGAATCATAAAGCAGG was -1.03; that for AATTAAGGAGATTTGGCTTTGAATTCCACT was -1.22; that for AAGTTAACCCCATCACCCATGTGCAGGCAA was 2.31.
Consider CTCTGGCCAGAGAGATGTCAGCCCAAGATA, for which the binding signal (log2 normalized intensity) turned out to be 3.01.
Next, AAAAACACTCAGTTAATTATGGTAGAGCTA: -1.18; GGAGGGTGAAGGTCACAATTTCCAGGAGTA: 2.13; AATTCTCATTCATCCAAGGACTTTGTAATC: 3.2.
Next, GCCACTGGTTAGTTCCAAAGGACAAATCTC: 1.11; TGCTGATTACATAGGAGGCTGCCTCTCTGT: -1.02; CGAAATGGGGATAAACACCCCCATCTATGC: 1.3.
Next, CCTCTCTCTCTCTCTCTCACACACACACAC: 2.09.
Take ACATTTTACAACCTATTCTCTCTGAGGGCT: the binding signal (log2 normalized intensity) is -1.12.
The value for AGGTAAGTACCAATATTTGTTAAGTACCCA was -0.115.
The value for GAGCTCAAATGACAGAACAGTCCAGAGATT was -1.12.
Next, AAGGATTAGCAGATAAATCTAGGCCTAGGC: -1.19; AATCCTGGATTCCTCCAGCCCTCCTCTCTG: -0.331; TGTGGGCCTCACACCCTCTAGGGTAGATAA: -0.451.
On to CAAACACTCATTTCACATTGGTGCCCTTTG, for which the binding signal (log2 normalized intensity) is 3.72.
The value for TAGGCCACCTGTGTCAACATGGACTTTGTT was 5.86.
The value for TCCTTCACTAAAGTTACAAGATCTTTGGAC was 3; that for GATAACCTCAAAGAGCATGGCGCCAGGGAG was -1.02; that for ATCCTGAAAACAAATAGAGCAGACTATTAT was -1.04.
Next, GTAGAGCTTATCAAGGCAACTTTGGGCCAA: -1.16; TGTCTCTGGTTGAAGGGGAGGTTATCTTGG: 1.78.
For the sequence ATCTTCTTACCCCTTTGCTGATTACCTCAA, the binding signal (log2 normalized intensity) turned out to be 1.48.
Next, CCCAAGCTGTTATTCCAGGCACAAGAATGG: -1.1; AATATTCTGGCTTCTCGTGAGTATTTTTTC: 0.954; AGAATGGGCCAAGCTTAGGAATTCCAAGAA: -1.11.
Next, ATTCTAATCCTCTGGTCTTTGCCCCAGCTC: 3.3.
The value for AGCACACACGAGCTGTGCGCTTAGTCCATG was -1.19; that for CCCTCACTGAATATGTTCGGGAGACATGTG was 1.79.
Take GCCTGGTCCGCCCTTCCCCGCTCTCCCCGC: the binding signal (log2 normalized intensity) was 3.94.
Next, CATGTAACCAAAATGCCAATAGTGGCTTTG: -1.11; AAGGACACAACAGAATGTGACTGCCCTCTC: 2.24.
The value for GGGGGAGGTGCAGAGAGGGGCAGGGTTCAC was 1.57.
The value for TGGATTGTACTGTGTCTTGATCTTGCAACT was 1.74; that for TTTGAGTCATTGAGGCTTTGCCTTAGGATT was -0.162; that for AATTCCTGCTGGGCGTGAACTGTGACTTTT was 2.12.
GAAGCTCTGGGAGTGCCCTTGCCGAGAGCG: the binding signal (log2 normalized intensity) is -1.16.
In the case of ACAGTCCACAGAAACGCAGTCCTGAAAACA, the binding signal (log2 normalized intensity) was -1.21.
The value for AACAGTGGCTGGCCATGAGTGAGCACTTAA was -1.13.
Next, TAGGGGGCAATTTCCCTGGTCGACCTCCCC: 2.79.
Next, AACTTTTTCCTTTTCTTATCTGTTCACAGT: 1.76.
With CAGCTGGATTGTTACATCATAGTGTTTGCC, the binding signal (log2 normalized intensity) amounted to 1.04.
For AATATTTGCTGTCTCTTCCACCTGGAATGC, the binding signal (log2 normalized intensity) worked out at 0.819.
For the sequence ACTGAGGGGTGGGGACCAGTGGGGGGAAGC, the binding signal (log2 normalized intensity) is -1.03.
In the case of TGCAAGCACACTGTCCTGCTTTGAAGATAA, the binding signal (log2 normalized intensity) is -0.841.
The value for TTTCCGAGGAGAGCAAACACCAAGGGCAGA was -1.09.

The values above are taken from article PMC10726135.
